The values below come from a collection of fitness landscapes (doi:10.1126/science.1257360).

B1: PhoQ; a variant is named by its letters at X, in order, P23837 (parent)
chain: MKKLLRLFFPLSLRVRFLLATAAVVLVLSLAYGMVALIGYSVSFDKTTFRLLRGESNLFYTLAKWENNKLHVELPENIDKQSPTMTLIYDENGQLLWAQRDVPWLMKMIQPDWLKSNGFHEIEADVNDTSLLLSGDHSIQQQLQEVREDDDDAEMTHSVAVNVYPATSRMPKLTIVVVDTIPVELKSSYMVWSWFIYVLSANLLLVIPLLWVAAWWSLRPIEALAKEVRELEEHNRELLNPATTRELTSLVRNLNRLLKSERERYDKYRTTLTDLTHSLKTPLXXLQXXLRSLRSEKMSVSDAEPVMLEQISRISQQIGYYLHRASMRGGTLLSRELHPVAPLLDNLTSALNKVYQRKGVNISLDISPEISFVGEQNDFVEVMGNVLDNACKYCLEFVEISARQTDEHLYIVVEDDGPGIPLSKREVIFDRGQRVDTLRPGQGVGLAVAREITEQYEGKIVAGESMLGGARMEVIFGRQHSAPKDE

This is one part of the list. Bounds are passed on as bounds.

Variants of B1 are the subject of the experiment. The experiment in a line: enrichment ratio after two sorts for PhoP signalling (ratio (wild type AVST 3.29)); higher = more functional. The settings on record: with PhoP (E. coli).
Take LFCN: the enrichment ratio was not above 0.25. On to IQCA, for which the enrichment ratio was not above 0.25.

HPIG: the enrichment ratio was not above 0.25. Consider RWNS, for which the enrichment ratio is not above 0.25. With SQLY, the enrichment ratio is 5.01. With INVA, the enrichment ratio was not above 0.25. The figure for GMYW is not above 0.25. Regarding EYLV, the enrichment ratio is not above 0.25. The figure for LAVW is not above 0.25; for RPRR it is not above 0.25. On to FVCK, for which the enrichment ratio is not above 0.25. In the case of MHQD, the enrichment ratio is not above 0.25.

For the variant RRII, the enrichment ratio is not above 0.25.

In the case of HHFN, the enrichment ratio was not above 0.25. For PKIG, the enrichment ratio is not above 0.25. Turning to QNGF, the enrichment ratio was not above 0.25. As for MMFR, the enrichment ratio is not above 0.25. As to EGRL, the enrichment ratio was not above 0.25. In the case of LVKF it was not above 0.25; in that of PHDK, not above 0.25. The figure for VQMA is not above 0.25; for YKHT it is not above 0.25; for HESL it is not above 0.25. For the variant YSLV, the enrichment ratio came to 8.32. In the case of GQCH it was 1.9. The figure for RTGL is not above 0.25; for YTHV it is not above 0.25.

As for MVEG, the enrichment ratio was not above 0.25. In the case of FQIR it was not above 0.25. In the case of IHVD it was not above 0.25. In the case of SCGM it was 9.65; in that of VFWD, not above 0.25.

As for EFTG, the enrichment ratio is not above 0.25. The figure for GPLS is not above 0.25. The figure for MFHM is not above 0.25; for IIGM it is not above 0.25; for QGCP it is not above 0.25. In the case of NCPG it was not above 0.25; in that of ARDH, not above 0.25. Take QVWS: the enrichment ratio was not above 0.25. The figure for NYER is not above 0.25; for KSLI it is not above 0.25; for SCCF it is 13.7. In the case of MTAI it was 17.8; in that of QDRC, not above 0.25. The figure for VNYI is not above 0.25. Consider SKTW, for which the enrichment ratio was not above 0.25.

As for VCLM, the enrichment ratio amounted to 4.34. The figure for PFTY is not above 0.25; for VQVE it is not above 0.25; for DYEL it is not above 0.25. The figure for RWFT is not above 0.25. The figure for ISDA is not above 0.25; for LIGP it is not above 0.25. HYRH: the enrichment ratio is not above 0.25. For the variant TWYR, the enrichment ratio is not above 0.25. For the variant YFVY, the enrichment ratio was not above 0.25. The figure for TFTQ is 1.63; for RLYR it is not above 0.25; for ATAV it is 2.86. In the case of EIDF, the enrichment ratio is not above 0.25. The figure for MAYL is 9.09. The figure for MLHK is not above 0.25; for IFQQ it is not above 0.25; for FAHE it is not above 0.25. The figure for RYHQ is not above 0.25; for QTRC it is not above 0.25; for KCET it is not above 0.25. YVRN: the enrichment ratio was not above 0.25. The figure for QLMD is not above 0.25; for LQKD it is not above 0.25; for TWIE it is not above 0.25. In the case of RLNK, the enrichment ratio is not above 0.25. For the variant LYLV, the enrichment ratio was not above 0.25. The figure for KRMP is not above 0.25. The figure for AMFG is not above 0.25. The figure for DDLQ is not above 0.25; for GRGV it is not above 0.25.

Regarding QQHN, the enrichment ratio is not above 0.25.

As to EFVQ, the enrichment ratio was not above 0.25.

Turning to PSCA, the enrichment ratio was not above 0.25. The figure for IITK is not above 0.25; for TYPR it is not above 0.25. In the case of GRSH, the enrichment ratio is not above 0.25. With SYSP, the enrichment ratio was not above 0.25.

For MFTL, the enrichment ratio was not above 0.25. For the variant KWID, the enrichment ratio is not above 0.25. In the case of DQSI it was not above 0.25; in that of NTRM, not above 0.25. The figure for ICEG is not above 0.25. As for AVHP, the enrichment ratio was not above 0.25. The figure for AKHY is not above 0.25; for CLCN it is 23.2; for FVNV it is not above 0.25. In the case of HIPS it was not above 0.25. In the case of QSDV it was 8.35.

As for DQGY, the enrichment ratio was not above 0.25. In the case of PGFN it was not above 0.25; in that of WEHW, not above 0.25; in that of DMWD, not above 0.25. On to NHVQ, for which the enrichment ratio was not above 0.25.

CITL: the enrichment ratio is not above 0.25. For TTVK, the enrichment ratio was not above 0.25. As for KQER, the enrichment ratio is not above 0.25. With FHTN, the enrichment ratio was not above 0.25.

Take KPSE: the enrichment ratio was not above 0.25. In the case of ADSF it was not above 0.25. Regarding RHEQ, the enrichment ratio was not above 0.25. As for LMYN, the enrichment ratio is not above 0.25. In the case of PHML it was not above 0.25; in that of YRMA, not above 0.25; in that of FVQS, not above 0.25.

FVWL: the enrichment ratio was not above 0.25. The figure for TSWK is not above 0.25; for VIIN it is not above 0.25; for DASF it is not above 0.25. The figure for FWEI is not above 0.25. On to GPFC, for which the enrichment ratio was not above 0.25. For the variant TWKY, the enrichment ratio was not above 0.25.

Take NIKG: the enrichment ratio was not above 0.25. The figure for ANLY is 12; for SRKA it is not above 0.25; for NQTW it is not above 0.25. The figure for QVQR is not above 0.25; for MNIC it is not above 0.25. The figure for FMMQ is not above 0.25.

As to YHSF, the enrichment ratio was not above 0.25. In the case of WNKT it was not above 0.25; in that of WEPP, not above 0.25; in that of YVYS, not above 0.25. In the case of DRRV it was not above 0.25; in that of GFPF, not above 0.25. In the case of QCWL it was 13.1. On to NDHG, for which the enrichment ratio was not above 0.25. ARGW: the enrichment ratio was not above 0.25.

VLMH: the enrichment ratio was not above 0.25.

As to TTNR, the enrichment ratio is not above 0.25. With WTML, the enrichment ratio is not above 0.25.

WPHP: the enrichment ratio was not above 0.25.

For the variant YRRK, the enrichment ratio is not above 0.25.

As for RHAS, the enrichment ratio is not above 0.25. Turning to FLLE, the enrichment ratio was 0.647. With GMWI, the enrichment ratio was not above 0.25.

Regarding VSRW, the enrichment ratio was not above 0.25. The figure for LYYP is not above 0.25; for QWLV it is not above 0.25.

SWAD: the enrichment ratio is not above 0.25. For the variant KPLV, the enrichment ratio is not above 0.25. In the case of GSRH it was not above 0.25; in that of PTSV, not above 0.25. Turning to ITFA, the enrichment ratio is not above 0.25. As for RQEV, the enrichment ratio was not above 0.25. For the variant RACG, the enrichment ratio is not above 0.25. The figure for NIRV is not above 0.25; for YVFT it is not above 0.25; for WMCK it is not above 0.25.

Take TSRH: the enrichment ratio was not above 0.25. With LWDI, the enrichment ratio is not above 0.25. As for QNMT, the enrichment ratio was not above 0.25. Regarding HVCI, the enrichment ratio was not above 0.25. As for TPCY, the enrichment ratio was not above 0.25. In the case of YKNT it was not above 0.25; in that of AGKD, not above 0.25. WVYG: the enrichment ratio was not above 0.25. Consider IALS, for which the enrichment ratio is 0.797. The figure for QEFT is 5.39.

In the case of PVEL, the enrichment ratio was not above 0.25.

For QKRV, the enrichment ratio was not above 0.25. The figure for IGGT is not above 0.25; for CFHG it is not above 0.25; for RGRC it is not above 0.25. Turning to HASK, the enrichment ratio was not above 0.25. The figure for IWGW is not above 0.25. Consider FGDI, for which the enrichment ratio is not above 0.25. In the case of TLTY it was not above 0.25; in that of RNEC, not above 0.25; in that of VKCC, not above 0.25. The figure for QILE is not above 0.25; for WCYI it is not above 0.25; for ASCE it is 4.22.

WLRR: the enrichment ratio was not above 0.25. The figure for EAMQ is not above 0.25. Consider MNMR, for which the enrichment ratio was not above 0.25.

Consider AFVK, for which the enrichment ratio was not above 0.25. In the case of WSHY it was not above 0.25; in that of TVAT, 16.8; in that of AYPT, not above 0.25.

SWLH: the enrichment ratio is not above 0.25.

In the case of VWQS, the enrichment ratio was not above 0.25. As for MCLM, the enrichment ratio turned out to be 6.74.

In the case of CRCP, the enrichment ratio was not above 0.25. Take KQTP: the enrichment ratio is not above 0.25. The figure for IHAK is not above 0.25. Turning to PHWE, the enrichment ratio is not above 0.25. With AVLC, the enrichment ratio is 8.34.
